In PubChem BioAssay AID463173 (ICCB-Longwood Screening Facility, Harvard Medical School, 2010):
Among all 52,000 compounds or so, about 4,300 (8.3%) were called active. Rule as the data show it: active = survival mostly below about 52% (no sharp cut-off); inactive = mostly above about 56%. The list shows a part of the results.

test system: DeltatarO mutant; assay: S. aureus survival, RN4220 and DeltatarO strains – OD600, teichoic acid synthesis inhibitors, primary screen (AID 463173); details: S. aureus RN4220 wild type/DeltatarO growth, OD600, 18 h, hits give low values, screened at 18.75 µg/mL (by protocol)

Row | SMILES | survival
1 | CC(CCc1ccccc1)NC(=O)Cn1c(=O)nc(-c2ccccc2F)c2cc(Cl)ccc21 (configuration not stated) | inactive: 75%
2 | COc1ccc(Cn2ccnc2SCC(=O)NC2CCCC2)cc1 | inactive: 95%
3 | Cc1oc(-c2ccccc2F)nc1CSCC(=O)NCc1ccccc1 | active: 41%
4 | Cc1cccc(C)c1NC(=O)CSc1ncc2c(n1)-c1ccc(Cl)cc1N(Cc1ccccc1)S2(=O)=O | active: 0%
5 | CC(C)c1ccc(NC(=O)C2CCCN(S(=O)(=O)c3cccc4nsnc34)C2)cc1 (configuration not stated) | inactive: 70%
6 | COc1ccc2c(c1)CC(C(=O)Nc1cccc(C)c1C)CO2 (configuration not stated) | inactive: 87%
7 | O=C(COc1ccccc1Cl)OCc1cc(=O)n2nc(C3CCCCC3)sc2n1 | inactive: 94%
8 | Cc1ccc(CNC(=O)c2ccc3c(c2)c(C)c(C)n3Cc2ccccc2)o1 | inactive: 86%
9 | CC(C)OCCCNC(=O)c1cn(C)c2ccc(S(=O)(=O)N3CCCCCC3)cc2c1=O | inactive: 125%
10 | CCn1ccc2cc(S(=O)(=O)N3CCC(C(=O)NCCc4ccccc4Cl)CC3)ccc21 | inactive: 94%
11 | CC1Cc2cc(S(=O)(=O)NCCc3ccc(Cl)cc3)ccc2N1C(=O)C1CCC1 (configuration not stated) | inactive: 67%
12 | Cc1c2cnn(CC(=O)NCC(C)c3ccccc3)c(=O)c2c(C)n1Cc1cccc(Cl)c1 (configuration not stated) | inactive: 77%
13 | Cc1cccc(S(=O)(=O)c2cn(Cc3ccccc3)c3cc(N4CCOCC4)c(F)cc3c2=O)c1 | inactive: 84%
14 | CC(C)C(Nc1ncnc2c1oc1ccccc12)C(=O)O (configuration not stated) | inactive: 113%
15 | COc1ccc(CNC(=O)C(C)Sc2nc(-c3ccccc3)cc(C(F)(F)F)n2)cc1 (configuration not stated) | inactive: 165%
16 | O=C(NC1CCCC1)c1ccc(CSc2nc3ccncc3n2Cc2cccc(F)c2)cc1 | inactive: 60%
17 | CCOc1cc(C(=O)NCc2ccc3c(c2)CCN3C(=O)c2ccc(F)cc2)cc(OCC)c1OCC | inactive: 120%
18 | CCCCOc1ccc(C(=O)Nc2ccc3oc(-c4cccnc4)nc3c2)cc1 | inactive: 69%
19 | COc1ccc(OCC(=O)N2CCC(c3nc4ccccc4s3)CC2)cc1 | inactive: 68%

Row | SMILES | survival
20 | Cc1ccc(-n2ncc(C(=O)NCc3cccs3)c2C2CCN(C(=O)OC(C)(C)C)CC2)cc1 | inactive: 99%
21 | COc1ccccc1NC(=O)C(C)Sc1nnc2ccc3ccccc3n12 (configuration not stated) | inactive: 79%
22 | Cc1ccc(CNC(=O)CN2C(=O)CCn3nc(-c4ccccc4)cc32)cc1 | inactive: 72%
23 | CC1(C(=O)O)CCC(C(=O)N2CCCCC2)C1(C)C (configuration not stated) | inactive: 93%
24 | Cc1oc2ccc(O)c(CN3CCCC3)c2c1C(=O)Nc1ccccc1 | inactive: 74%
25 | Cc1cccc(N2CCN(C(=O)C3CCCN(S(=O)(=O)c4ccc5c(c4)oc(=O)n5C)C3)CC2)c1C (configuration not stated) | inactive: 84%
26 | Cc1ccc(Cl)cc1NS(=O)(=O)c1ccc2c(c1)NC(=O)CCS2 | inactive: 86%
27 | COCCOC(=O)C1=C(C)NC(=O)NC1c1cn(-c2ccccc2)nc1-c1ccccc1 (configuration not stated) | inactive: 57%
28 | CC1Cc2cc(S(=O)(=O)CCC(=O)NCc3ccc(Cl)cc3)ccc2N1C(=O)C1CC1 (configuration not stated) | inactive: 94%
29 | Cc1ccc(CNCC(C)O)s1 (configuration not stated) | inactive: 73%
30 | O=C(CS(=O)(=O)Cc1ccccc1)Nc1ccccn1 | inactive: 105%
31 | COc1ccc(OC)c(CCNC(=O)CCc2cn(Cc3cc(C)ccc3C)c3ccccc23)c1 | inactive: 71%
32 | O=C1Nc2ccccc2N(O)N1c1ccccc1Cl | inactive: 90%
33 | CNc1nc(OCC#N)nc(N2CCCCC2)n1 | inactive: 110%
34 | COc1ccc(NC(=O)c2sc3nc(-c4cc5ccc(OC)cc5oc4=O)[nH]c(=O)c3c2C)cc1 | active: 46%
35 | CCCCN(CC)CCNC(=O)CCn1cnc2onc(-c3ccc(F)cc3)c2c1=O | inactive: 81%
36 | Cc1cccc(-n2cc(-c3ccccc3)c3c(N4CCC(C)CC4)ncnc32)c1 | inactive: 90%
37 | COc1cc(NC(=O)NCC2CCN(Cc3ccccc3Cl)CC2)cc(OC)c1OC | inactive: 89%
38 | COc1ccc(-c2cn3nc(N4CCCC(C(=O)Nc5cc(C)ccc5C)C4)sc3n2)cc1 (configuration not stated) | inactive: 76%

Row | SMILES | survival
39 | CCN1C(=O)C(O)(CC(=O)c2ccc(OC)c(OC)c2)c2ccccc21 (configuration not stated) | inactive: 81%
40 | Fc1ccc(-n2ncc3c(NCCCn4ccnc4)ncnc32)cc1 | inactive: 89%
41 | O=C(N1CCOCC1)C1(c2ccc(Cl)cc2)CCCC1 | inactive: 86%
42 | COc1cccc(C2NC(=O)c3n[nH]c(-c4cccs4)c32)c1 (configuration not stated) | inactive: 71%
43 | COc1ccc(Br)cc1CNC(=O)c1cnc2sc(N3CCCC3)nn2c1=O | inactive: 98%
44 | COc1ccc(C(=O)N(Cc2cc(OC)c(OC)c(OC)c2)c2ccccn2)cc1 | inactive: 76%
45 | O=C(Cn1c(=O)nc(-c2ccccc2)c2ccccc21)NCCc1ccc(Cl)cc1 | inactive: 70%
46 | CN1CCN(C(CNC(=O)c2ccccc2F)c2ccc3c(c2)OCO3)CC1 (configuration not stated) | inactive: 87%
47 | Cc1ccc2sc(N3CCN(C(=O)CCS(=O)(=O)c4ccc(Cl)cc4)CC3)nc2c1C | inactive: 64%
48 | O=C(NCCc1ccc(F)cc1)C(=O)NCC(c1cccs1)S(=O)(=O)c1ccc(F)cc1 (configuration not stated) | inactive: 71%
49 | Cc1ccc(-c2cn3nc(N4CCCC(C(=O)Nc5ccc(F)cc5)C4)sc3n2)cc1 (configuration not stated) | inactive: 75%
50 | Cc1ccc(N(CC(=O)N2CCN(c3ccc(Cl)cc3)CC2)S(=O)(=O)c2c(C)nn(C)c2C)cc1 | inactive: 82%
51 | CCC(Sc1nc2ncccc2[nH]1)C(=O)Nc1cccc(OC)c1 (configuration not stated) | inactive: 67%
52 | CCCN(CCC)C(=O)Cn1c(=O)n(-c2cccc(OC)c2)c(=O)c2c(C)c(C(=O)N(C)C)sc21 | inactive: 75%
53 | CCOC(=O)/C(C#N)=C\c1cccn1C | inactive: 65%
54 | CCC1CCCCN1CCCNC(=O)c1[nH]c2ccccc2c1Sc1ccc(Cl)cc1 (configuration not stated) | active: -1%
55 | CCOc1ccc(C(c2c(O)cc(C)n(CCOC)c2=O)N2CCN(c3ccccc3)CC2)cc1 (configuration not stated) | inactive: 93%
56 | Cc1c2cnn(CC(=O)N3CCCCC3)c(=O)c2c(C)n1Cc1ccc(F)cc1 | inactive: 67%
57 | COc1cccc(CNC(=O)C(CC(C)C)NS(=O)(=O)c2ccc3c(c2)oc(=O)n3C)c1 (configuration not stated) | inactive: 127%
